Results as given in PubChem BioAssay AID1508624 (National Center for Advancing Translational Sciences (NCATS), 2021).
About 120 (0.25%) of roughly 48,000 compounds were called active. Another 4% or so got no clear call; they are omitted. Calls follow the shape of the dose curve; as a rule, active = well fitted activation curve with a large enough effect; inconclusive = small, poorly fitted or top-dose-only effect, or another doubt; inactive = no such curve, though single readings can be large or run the other way. The list shows a part of the results.

Assay: Primary qHTS for Identification of Small Molecule Activators of Huntingtin-Antisense Promoter Activity; also: nearly all actives have a fitted effect of over 55% in size
Conditions: HEK293 HTT-AS promoter firefly luciferase reporter (activity 0% = vehicle and -100% = no light), 24 h; series mostly up to 57.5 µM; activity change, positive = activation: at the top concentration
In short: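 Firefly luciferase signal from promoter-reporter HEK293 cells was scaled between vehicle (0%) and zero RLU (-100%). Compounds were tested at final concentrations of up to 57.5 uM over 24 h at 37 degrees C. PTC124 at 50 uM final served as control inhibitor.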

Row | Compound | activity change, positive = activation
1 | O=C(CSc1nc(=O)[nH]c2c1CCC2)NCc1ccc(F)cc1 | inactive: -2.97%
2 | Cc1cc(C)c(/C=C2\C(=O)Nc3ccccc32)[nH]1 | inactive: 12.3%
3 | Cc1ccc(-n2ncc3c(N4CCN(Cc5ccccc5)CC4)ncnc32)cc1 | inactive: 0.536%
4 | COc1ccc(Cl)cc1S(=O)(=O)N1CCN(C(=O)c2cc(-c3ccc(Br)cc3)n[nH]2)CC1 | inactive: -38.5%
5 | Cc1cccc(C(=O)Nc2ccc(S(=O)(=O)N3CCCCC3c3cccnc3)cc2)c1 (stereo not drawn) | inactive: -16.3%
6 | Cc1ccc2nc(-c3c[nH]c4ccccc34)c(Nc3ccc(F)cc3)n2c1 | inactive: 16.6%
7 | Cc1ccc(CNC(=O)C(C)n2c(=O)cc(-c3ccccc3)c3c(C)nn(C)c32)cc1 (stereo not drawn) | inactive: -11.9%
8 | O=C(CCS(=O)(=O)c1cccc2nonc12)Nc1ccc(F)cc1F | inactive: -7.77%
9 | COc1ccc(Br)cc1CNC(=O)Cn1ncn2nc(-c3cccs3)cc2c1=O | inactive: 1.3%
10 | Cc1oc(-c2ccccc2Cl)nc1CSc1nncn2c1cc1occc12 | inactive: -2.43%
11 | COc1ccccc1N1CCN(C(=O)c2ccc3c(c2)CCN3S(=O)(=O)c2ccccc2)CC1 | inactive: -30.4%
12 | Cc1ccc(-c2nnn3c2nc(NCc2ccc4c(c2)OCO4)c2ccccc23)cc1 | inactive: 2.53%
13 | COc1ccc2c(Sc3ccccc3)c(C(=O)NCc3cc(Br)ccc3OC)[nH]c2c1 | inactive: -9.01%
14 | O=C(CC(c1cccs1)N1Cc2ccccc2C1=O)Nc1cccc(F)c1 (stereo not drawn) | inactive: -35%
15 | CCCn1ccc2c(OCC(=O)Nc3ccc(OC)c(OC)c3)cccc2c1=O | inactive: -40.6%
16 | Cc1ccc(OCC(=O)Nc2nc(-c3ccc(Br)cc3)ns2)cc1 | inactive: -23%
17 | COc1ccccc1CNC(=O)c1ccc(CSc2nc3ccncc3n2Cc2cccc(F)c2)cc1 | inactive: -22.8%
18 | O=C(NOC[C@H](O)CO)c1ccc(F)c(F)c1Nc1ccc(I)cc1F | inactive: -3.37%
19 | O=C(NCCc1ccc(F)cc1)C(=O)NCC(c1cccs1)S(=O)(=O)c1ccccc1 (stereo not drawn) | inactive: -32.3%
20 | COc1ccc(C)cc1NC(=O)N(C(C)C)C1CCN(C(C)=O)CC1 | inactive: -5.45%
21 | Cc1ccc([C@@H]2O[C@H](CO)[C@@H](O)[C@H](O)[C@@H]2O)cc1Cc1ccc(-c2ccc(F)cc2)s1 | inactive: -23.6%
22 | COc1ccc(C(C)=O)cc1CSc1nc(Nc2ccc(F)c(F)c2)c2ccccc2n1 | inactive: -40.2%
23 | O=C(O)c1cc(-c2ccccc2)nn1Cc1ccccc1 | inactive: 12.2%
24 | Cc1ccc(N2CCN(c3nc4ccc(C(=O)c5ccccc5)cc4n4cnnc34)CC2)c(C)c1 | inactive: -6.69%

Row | Compound | activity change, positive = activation
25 | Cc1cc(C)cc(NC(=O)C(=O)NCCc2sc(-c3cccc(F)c3)nc2C)c1 | inactive: -9.4%
26 | CC(=O)Nc1ccc(NC(=O)c2ccc3c(c2)CCN3S(=O)(=O)c2ccc(C)cc2)cc1 | inactive: -18.1%
27 | Cc1ccccc1NC(=O)CSc1ccc(-c2ccccn2)nn1 | inactive: -3.32%
28 | CCN1CCN(CCCNC(=O)Cn2nc(C)n3c(cc4c(OC)cccc43)c2=O)CC1 | inactive: -9.88%
29 | COc1ccccc1-c1nn(CCC(=O)Nc2ccc(C)cc2)c2nc(C)cc(C)c12 | inactive: -12.3%
30 | CC1=C(C(N)=O)C(c2ccc(C)cc2)n2nc(SCc3ccccc3)nc2N1 (stereo not drawn) | inactive: -26.1%
31 | CCCCCn1c(CCCNC(=O)c2ccccc2OC)nc2ccccc21 | inactive: -26.3%
32 | O=C(NCc1ccccc1Cl)C1=Cc2cc(Br)ccc2OC1 | inactive: -8.45%
33 | CCOC(=O)NNC(=O)C1CCC(C)CC1 (stereo not drawn) | inactive: -4.13%
34 | CC(C)Oc1ccc(CNC(=O)c2cnc3sc(N4CCCC4)nn3c2=O)cc1 | inactive: -2.61%
35 | O=C(NCC(c1ccc2c(c1)OCO2)N1CCN(c2ccccc2)CC1)C(=O)Nc1ccccc1F (stereo not drawn) | inactive: -11%
36 | Cc1oc2c(c1C(=O)NCc1ccccc1F)C1=NCCN1C=N2 | inactive: -13%
37 | CCOc1ccc(NC(=O)CC2C(=O)N(c3ccc(OC)cc3)C(=O)N2CCC2=CCCCC2)cc1 (stereo not drawn) | inactive: -20.6%
38 | CC(=O)Nc1cccc(-c2nnc(SCC(=O)c3cc([N+](=O)[O-])ccc3Cl)o2)c1 | inactive: -20.8%
39 | CCN(CC)C(=O)Cn1ncc2c([nH]c3ccccc32)c1=O | inactive: 0.241%
40 | CCOC(=O)c1cnc2ccc(C(=O)OC)cc2c1Nc1ccc(OCc2ccccc2Cl)cc1 | inactive: -22.2%
41 | COc1cccc(NC(=O)C(C)n2c(=O)cc(C(F)(F)F)c3c(C)nn(C)c32)c1 (stereo not drawn) | inactive: -29.3%
42 | CCCNC(=O)CN1C(=O)COc2ccc(S(=O)(=O)N3CCCCCC3)cc21 | inactive: -13.7%
43 | CCc1ccc(CNC(=O)CN2C(=O)C3CCCCN3c3ccc(C(=O)N4CCCC4)cc32)cc1 (stereo not drawn) | inactive: -13.7%
44 | CC1CCN(S(=O)(=O)c2ccc3c(c2)N(C)C(=O)CC(=O)N3C)CC1 | inactive: 2.44%
45 | CC(C)Oc1ccc(CNC(=O)C(C)n2ccc3cc(S(=O)(=O)N4CCCCCC4)ccc32)cc1 (stereo not drawn) | inactive: -23.1%
46 | COc1ccccc1NC(=O)c1cc2c(-c3ccccc3)nn(-c3ccccc3)c2s1 | inactive: -14.7%
47 | CCc1ccccc1NC(=O)Cn1c(=O)n(C(C)C)c(=O)c2oc3ccccc3c21 | inactive: -8.35%
48 | CCN(CC)C(=O)Cn1c(SCC(=O)Nc2ccc(F)cc2)nc2ccccc21 | inactive: -16.5%
